Assay results published in the supplement of paper PMC11060735.
Where a name gives a salt, the structure may show the parent alone. About 50 (3%) of roughly 1,800 compounds showed activity. Some of the results follow.

Test system: mouse p16Ink4a+/- lung fibroblasts (INKBRITE, bleomycin-injured)
Assay: percentage of GFP+ (p16Ink4a+) fibroblasts among all cells in well; higher = less depletion of p16Ink4a+ cells, active = 20 or less
Details: 1 µM; 3 days
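Note: fibroblasts sorted 14 days after bleomycin, GFP+ and GFP− mixed 1:1 in 384-well plates (GFP− as in-well control), imaged after Hoechst and NucView530 staining, reference wells lacked compound.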

| Structure (SMILES) | percentage of GFP+ |
| --- | --- |
| O=c1cc(-c2ccc(O)c(O)c2)oc2cc(O)cc(O)c12 [Luteolin] | inactive: 47.1% |
| CC(C)Oc1ccc(-c2cnc3c(-c4ccnc5ccccc45)cnn3c2)cc1 | inactive: 43.3% |
| Cc1coc2c1C(=O)C(=O)c1c-2ccc2c(C)cccc12 [Tanshinone I] | inactive: 41.1% |
| CN(C)CCCCC(=O)Nc1ccc(NC(=S)NC(=O)c2ccc(C(C)(C)C)cc2)cc1 [Tenovin-6] | inactive: 43.9% |
| Cc1ccccc1C(=O)Nc1ccc(C(=O)N2CCCC(O)c3cc(Cl)ccc32)c(C)c1 (stereo not given) [Tolvaptan] | inactive: 49.5% |
| NCCc1ccc(O)c(O)c1 [Dopamine] | inactive: 39.9% |
| C[C@H](CS)C(=O)N1CCC[C@H]1C(=O)O [Captopril] | inactive: 24.8% |
| CC1(COc2ccc3c(c2)ncn3-c2ccc3cccc(N4CCC(N)CC4)c3n2)COC1 [Crenolanib] | inactive: 38.5% |
| Cc1cc(Nc2ncnc3ccc(-c4ccc(CNCCS(C)(=O)=O)o4)cc23)ccc1Oc1ccn2ncnc2c1 [HER2-Inhibitor-1] | inactive: 47.4% |
| O=c1cc(N2CCOCC2)oc2c(-c3ccccc3)cccc12 | inactive: 47.1% |
| Nc1c(CC(=O)O)cccc1C(=O)c1ccccc1 [Amfenac Sodium Monohydrate] | inactive: 59.6% |
| CC(=O)OCC(=O)[C@@]1(O)CC[C@H]2[C@@H]3CCC4=CC(=O)CC[C@]4(C)[C@H]3C(=O)C[C@@]21C [Cortisone acetate] | inactive: 47.3% |
| CCCCC1C(=O)N(c2ccccc2)N(c2ccccc2)C1=O [Phenylbutazone] | inactive: 35.5% |
| Cc1cc2c(cc1CC(=O)c1sccc1S(=O)(=O)Nc1onc(C)c1Cl)OCO2 [Sitaxentan] | inactive: 32.9% |
| Cc1ccc(C(=O)Cn2c3c(sc2=N)CCCC3)cc1 [Pifithrin] | inactive: 46.5% |
| Cc1c(Nc2ncccc2C(=O)O)cccc1C(F)(F)F [Flunixin Meglumine] | inactive: 46.2% |
| CCN1CCN(c2cc3c(cc2F)c(=O)c(C(=O)O)cn3C2CC2)CC1 [Enrofloxacin] | inactive: 42.9% |
| N=C(N)Nc1nc(CSCCC(=N)NS(N)(=O)=O)cs1 [Famotidine] | inactive: 37.9% |
| CCc1cc(Nc2nccc(-c3c(-c4ccc(OC)c(C(=O)Nc5c(F)cccc5F)c4)nc4ccccn34)n2)c(OC)cc1N1CCC(N2CCN(S(C)(=O)=O)CC2)CC1 | inactive: 46.3% |
| CN(CCOc1ccc(CC2SC(=O)NC2=O)cc1)c1ccccn1 (stereo not given) [Rosiglitazone, Rosiglitazone Maleate] | inactive: 38.5% |
| CC(C)(C)NC(=O)[C@H]1CC[C@H]2[C@@H]3CC[C@H]4NC(=O)C=C[C@]4(C)[C@H]3CC[C@]12C [Finasteride] | inactive: 43.5% |
| CC(C)[C@H](O)C(=O)N[C@@H](C)C(=O)N[C@@H]1C(=O)N(C)CCc2ccccc21 [Semagacestat] | inactive: 47.3% |
| CC(C)(C)CC(C)(C)c1ccc(OCCOCC[N+](C)(C)Cc2ccccc2)cc1 [Benzethonium Chloride] | inactive: 46.8% |
| COc1ccc(CCC(=O)Nc2nc3ccc(Cl)cc3s2)cc1OC | inactive: 53.7% |

| Structure (SMILES) | percentage of GFP+ |
| --- | --- |
| COc1c(C)cnc(Cn2cnc3c(Cl)nc(N)nc32)c1C | active: 7.81% |
| CC(C)OC(=O)OCOP(=O)(CO[C@H](C)Cn1cnc2c(N)ncnc21)OCOC(=O)OC(C)C [Tenofovir Disoproxil] | inactive: 37.9% |
| Cc1cc(-c2ccc(CC(=O)Nc3ccc(-c4cccnc4)cc3)cc2)ccn1 | inactive: 43.3% |
| O=c1oc2cc(O)ccc2s1 [Thioxolone, Tioxolone] | inactive: 41.9% |
| CC(=O)N1CCN(c2ccc(OC[C@H]3CO[C@](Cn4ccnc4)(c4ccc(Cl)cc4Cl)O3)cc2)CC1 [Ketoconazole] | inactive: 38.2% |
| Cc1ccc2c(=O)c3cccc(CC(=O)O)c3oc2c1C [Vadimezan] | inactive: 40.3% |
| CC(C)C[C@H](NC(=O)[C@H](Cc1ccccc1)NC(=O)c1cnccn1)B(O)O [Bortezomib] | active: 5.29% |
| N#CCNC(=O)c1ccc(-c2ccnc(Nc3ccc(N4CCOCC4)cc3)n2)cc1 | inactive: 44.8% |
| CC12CC3CC(C)(C1)CC(N)(C3)C2 [Memantine] | inactive: 41.2% |
| Cc1cc(C)nc(NS(=O)(=O)c2ccc(NC(=S)NC(=O)COc3ccc(Br)cc3Cl)cc2)n1 | inactive: 44.9% |
| CN(C)C1CCN(C(=O)c2ccc(NC(=O)Nc3ccc(-c4nc(N5CCOCC5)nc(N5CCOCC5)n4)cc3)cc2)CC1 | inactive: 33% |
| CC(C)/N=c1\cc2n(-c3ccc(Cl)cc3)c3ccccc3[nH]c-2c\c1=N/c1ccc(Cl)cc1 [Clofazimine] | inactive: 40.5% |
| CCN(C(=O)c1c(O)c2c(Cl)cccc2n(C)c1=O)c1ccccc1 [Laquinimod] | inactive: 47.7% |
| Clc1ccc(C(Cn2ccnc2)OCc2csc3c(Cl)cccc23)c(Cl)c1 (stereo not given) [Sertaconazole] | inactive: 48.2% |
| NC1(Cc2ccc(Cl)cc2)CCN(c2ncnc3[nH]ccc23)CC1 | inactive: 51.9% |
| CCNC(=O)c1[nH]nc(-c2cc(Cl)c(O)cc2O)c1-c1ccc(OC)cc1 | inactive: 36.1% |
| CCOC(=O)O[C@]1(C(=O)OCCl)CC[C@H]2[C@@H]3CCC4=CC(=O)C=C[C@]4(C)[C@H]3[C@@H](O)C[C@@]21C [Loteprednol etabonate] | inactive: 32.2% |
| c1ccc2[nH]c(-c3cscn3)nc2c1 [Thiabendazole] | inactive: 45.3% |
| O=C1[O][Pt]2(<-[NH2][C@@H]3CCCC[C@H]3[NH2]->2)[O]C1=O [Oxaliplatin] | inactive: 30.7% |
| Cn1c(=O)c2c(ncn2CC2OCCO2)n(C)c1=O [Doxofylline] | inactive: 41% |
| O=C(N[C@H](CO)[C@H](O)c1ccc([N+](=O)[O-])cc1)C(Cl)Cl [Chloramphenicol] | inactive: 47.6% |
| Nc1nc(NCCNc2ncc(-n3ccnc3)c(-c3ccc(Cl)cc3Cl)n2)ccc1[N+](=O)[O-] | inactive: 50.9% |
| NNC(=O)c1ccncc1 [Isoniazid] | inactive: 42.3% |
| COc1ccc(-c2ccc3ncc4c(c3c2)n(-c2ccc(N3CCNCC3)c(C(F)(F)F)c2)c(=O)n4C)cn1 | active: 10.6% |

| Structure (SMILES) | percentage of GFP+ |
| --- | --- |
| Nc1cccc2c1C(=O)N(C1CCC(=O)NC1=O)C2=O (stereo not given) [Pomalidomide] | inactive: 46.7% |
| C[C@H](NC(=O)Cc1cc(F)cc(F)c1)C(=O)N[C@H](C(=O)OC(C)(C)C)c1ccccc1 | inactive: 50.7% |
| C=CC(=O)Nc1ccc2ncnc(Nc3ccc(OCc4cccc(F)c4)c(Cl)c3)c2c1 | inactive: 45.4% |
| C[C@H]1C[C@H]2[C@@H]3CCC4=CC(=O)C=C[C@]4(C)[C@H]3C(=O)C[C@]2(C)[C@@]1(O)C(=O)CO [Meprednisone] | inactive: 40.4% |
| CN(C)c1nc(N(C)C)nc(N(C)C)n1 [Altretamine] | inactive: 41.3% |
| Cc1cnc(Nc2ccc(N3CCN(C)CC3)cc2)nc1Nc1cccc(S(=O)(=O)NC(C)(C)C)c1 | inactive: 39.4% |
| Cc1c(C(=O)Nc2ccc(N3C[C@@H](C)O[C@@H](C)C3)nc2)cccc1-c1ccc(OC(F)(F)F)cc1 [Sonidegib] | inactive: 42.4% |
| C[C@H](NC(=O)Cc1cc(F)cc(F)c1)C(=O)N[C@@H]1C(=O)N(C)c2ccccc2-c2ccccc21 | inactive: 57.6% |
| Nc1cc(C(Cl)=C(Cl)Cl)c(S(N)(=O)=O)cc1S(N)(=O)=O [Clorsulon] | inactive: 40.5% |
| CC(C)(C)NS(=O)(=O)c1cncc(-c2cc(F)c3nc(N)nn3c2)c1 | inactive: 49.8% |
| O=C(O)[C@H]1O[C@H](Oc2cc3oc(-c4ccccc4)cc(=O)c3c(O)c2O)[C@H](O)[C@@H](O)[C@@H]1O [Baicalin] | inactive: 36.7% |
| O=C1C(c2c(O)[nH]c3ccccc23)=Nc2ccccc21 [Indirubin] | inactive: 31.1% |
| COc1cc(O)c2c(c1)C(=O)c1cc(C)cc(O)c1C2=O [Physcion] | inactive: 41.3% |
| CCCCCCOC(=O)/N=C(\N)c1ccc(NCc2nc3cc(C(=O)N(CCC(=O)OCC)c4ccccn4)ccc3n2C)cc1 [Dabigatran etexilate] | inactive: 37.3% |
| CN1CCC(CNc2ccc3ncc(-c4cccc(OC(F)(F)F)c4)n3n2)CC1 | inactive: 41.5% |
| C[C@H](C(=O)O)c1ccc(-c2ccccc2)c(F)c1 [Flurbiprofen] | inactive: 44.9% |
| CC#C[C@]1(O)CC[C@H]2[C@@H]3CCC4=CC(=O)CCC4=C3[C@@H](c3ccc(N(C)C)cc3)C[C@@]21C [Mifepristone] | inactive: 46.9% |
| N#CSc1cc(SC#N)c(N)nc1N | inactive: 38.2% |
| COC(=O)C1=C(C#N)N=C(C)/C(=C(\O)OC(C)C)C1c1cccc([N+](=O)[O-])c1 (stereo not given) [Nilvadipine] | inactive: 51.6% |
| CN(C)CCc1c[nH]c2ccc(CS(=O)(=O)N3CCCC3)cc12 [Almotriptan] | inactive: 36.7% |
| Oc1ccnc(O)n1 [Uracil] | inactive: 46.8% |
| C/C1=C2/N[C@H]([C@H](CC(N)=O)[C@@]2(C)CCC(=O)NC[C@@H](C)OP(=O)(O)O[C@H]2[C@@H](O)[C@@H](n3cnc4cc(C)c(C)cc43)O[C@@H]2CO)[C@]2(C)N=C(/C(C)=C3N=C(/C=C4N=C1[C@@H](CCC(N)=O)C\4(C)C)[C@@H](CCC(N)=O)[C@]\3(C)CC(N)=O)[C@@H](CCC(N)=O)[C@]2(C)CC(N)=O [Vitamin B12] | inactive: 52.5% |
